Test results reported in patent US10299477B2 (priority 2015, dated 2019).

Columns and labels:
Assay type in all cases: in vivo
Botrytis cinerea = experiment: Test Example B: Gray mold on tomato; details: gray mold on tomato, Botrytis cinerea; 250 ppm spray
Source text: [Test Example B] Gray Mold on Tomato
Seeds of a test plant (tomato variety: Oogata Fukuju) were planted followed by cultivating until three to five first leaves (true leaves) appeared.

Puccinia recondita = experiment: Test Example E: Brown rust on wheat; details: brown rust on wheat, Puccinia recondita; 250 ppm spray
Source text: [Test Example E] Brown Rust on Wheat

[1] = system: Blumeria graminis f sp. hordei; experiment: Test Example D: Powdery mildew on barley; details: powdery mildew on barley; 250 ppm spray
Source text: [Test Example D] Powdery Mildew on Barley
After the sprayed dilutions were dried, conidia of Blumeria graminis f sp. hordei were inoculated to the plants by shaking off.

Plasmopara viticola = experiment: Test Example G: Downy mildew on vine; details: downy mildew on vine, Plasmopara viticola; 250 ppm spray, 7-10 days after inoculation
Source text: [Test Example G] Downy Mildew on Vine
Seeds of a test plant (grape variety: Neomuscat) were planted followed by cultivating until three to four first leaves appeared. […] After the sprayed dilutions were dried, a zoosporangia suspension (1-2×10^4 zoosporangia/ml) of Plasmopara viticola was inoculated to the plants by spraying.

Alternaia brassicicola = experiment: Test Example C: Alternaria sooty spot on cabbage; details: Alternaria sooty spot on cabbage; 250 ppm spray
Source text: [Test Example C] Alternaria Sooty Spot on Cabbage
Seeds of a test plant (cabbage variety: Shikidori) were planted followed by cultivating until the cotyledons extended.

CCn1c(-c2c(F)cccc2F)c(-c2cc(Cl)ccc2F)ccc1=O [Compound 522]
Test B (control value class) (Botrytis cinerea): H (H shows more than 50% of control values)
Test E (control value class) (Puccinia recondita): L (L shows 50% or less of control values)
Test D (control value class) [1]: L (L shows 50% or less of control values)
Test G (control value class) (Plasmopara viticola): L (L shows 50% or less of control values)
Test C (control value class) (Alternaia brassicicola): H (H shows more than 50% of control values)

CCn1c(-c2c(F)cccc2F)c(-c2cc(Cl)ccc2F)cc(Cl)c1=O [Compound 523]
Test B (control value class) (Botrytis cinerea): H (H shows more than 50% of control values)
Test E (control value class) (Puccinia recondita): H (H shows more than 50% of control values)
Test D (control value class) [1]: L (L shows 50% or less of control values)
Test G (control value class) (Plasmopara viticola): L (L shows 50% or less of control values)
Test C (control value class) (Alternaia brassicicola): L (L shows 50% or less of control values)

Cn1c(-c2c(F)cccc2F)c(-c2cc(Cl)ccc2F)ccc1=O [Compound 524]
Test B (control value class) (Botrytis cinerea): H (H shows more than 50% of control values)
Test E (control value class) (Puccinia recondita): H (H shows more than 50% of control values)
Test D (control value class) [1]: L (L shows 50% or less of control values)
Test G (control value class) (Plasmopara viticola): L (L shows 50% or less of control values)
Test C (control value class) (Alternaia brassicicola): H (H shows more than 50% of control values)

Cn1c(-c2c(F)cccc2F)c(-c2cc(Cl)ccc2F)cc(Cl)c1=O [Compound 525]
Test B (control value class) (Botrytis cinerea): H (H shows more than 50% of control values)
Test E (control value class) (Puccinia recondita): H (H shows more than 50% of control values)
Test D (control value class) [1]: L (L shows 50% or less of control values)
Test G (control value class) (Plasmopara viticola): L (L shows 50% or less of control values)
Test C (control value class) (Alternaia brassicicola): L (L shows 50% or less of control values)

CN1C(=O)CCC(c2ccccc2F)=C1c1c(F)cc(F)cc1F [Compound 526]
Test B (control value class) (Botrytis cinerea): H (H shows more than 50% of control values)
Test E (control value class) (Puccinia recondita): L (L shows 50% or less of control values)
Test D (control value class) [1]: H (H shows more than 50% of control values)
Test G (control value class) (Plasmopara viticola): H (H shows more than 50% of control values)
Test C (control value class) (Alternaia brassicicola): H (H shows more than 50% of control values)

CCn1c(-c2c(F)cc(F)cc2F)c(-c2ccccc2F)ccc1=O [Compound 527]
Test B (control value class) (Botrytis cinerea): H (H shows more than 50% of control values)
Test E (control value class) (Puccinia recondita): H (H shows more than 50% of control values)
Test D (control value class) [1]: H (H shows more than 50% of control values)
Test G (control value class) (Plasmopara viticola): H (H shows more than 50% of control values)
Test C (control value class) (Alternaia brassicicola): H (H shows more than 50% of control values)

Cn1c(-c2c(F)cc(F)cc2F)c(-c2ccccc2F)ccc1=O [Compound 528]
Test B (control value class) (Botrytis cinerea): H (H shows more than 50% of control values)
Test E (control value class) (Puccinia recondita): H (H shows more than 50% of control values)
Test D (control value class) [1]: H (H shows more than 50% of control values)
Test G (control value class) (Plasmopara viticola): H (H shows more than 50% of control values)
Test C (control value class) (Alternaia brassicicola): H (H shows more than 50% of control values)

CCn1c(-c2c(F)cc(F)cc2F)c(-c2ccccc2F)cc(Cl)c1=O [Compound 529]
Test B (control value class) (Botrytis cinerea): H (H shows more than 50% of control values)
Test E (control value class) (Puccinia recondita): H (H shows more than 50% of control values)
Test D (control value class) [1]: H (H shows more than 50% of control values)
Test G (control value class) (Plasmopara viticola): H (H shows more than 50% of control values)
Test C (control value class) (Alternaia brassicicola): H (H shows more than 50% of control values)

CCn1c(-c2c(F)cc(OC)cc2F)c(-c2ccccc2F)ccc1=O [Compound 530]
Test B (control value class) (Botrytis cinerea): H (H shows more than 50% of control values)
Test E (control value class) (Puccinia recondita): H (H shows more than 50% of control values)
Test D (control value class) [1]: H (H shows more than 50% of control values)
Test G (control value class) (Plasmopara viticola): H (H shows more than 50% of control values)
Test C (control value class) (Alternaia brassicicola): H (H shows more than 50% of control values)

CCn1c(-c2c(F)cc(OC)cc2F)c(-c2ccccc2F)cc(Cl)c1=O [Compound 531]
Test B (control value class) (Botrytis cinerea): H (H shows more than 50% of control values)
Test E (control value class) (Puccinia recondita): H (H shows more than 50% of control values)
Test D (control value class) [1]: H (H shows more than 50% of control values)
Test G (control value class) (Plasmopara viticola): L (L shows 50% or less of control values)
Test C (control value class) (Alternaia brassicicola): H (H shows more than 50% of control values)

CCn1c(-c2c(F)cc(F)cc2F)c(-c2ccccc2F)cc(Br)c1=O [Compound 532]
Test B (control value class) (Botrytis cinerea): H (H shows more than 50% of control values)
Test E (control value class) (Puccinia recondita): H (H shows more than 50% of control values)
Test D (control value class) [1]: H (H shows more than 50% of control values)
Test G (control value class) (Plasmopara viticola): H (H shows more than 50% of control values)
Test C (control value class) (Alternaia brassicicola): H (H shows more than 50% of control values)

CCn1c(-c2c(F)cccc2F)c(-c2cc(OC)ccc2Cl)cc(F)c1=O [Compound 533]
Test B (control value class) (Botrytis cinerea): H (H shows more than 50% of control values)
Test E (control value class) (Puccinia recondita): H (H shows more than 50% of control values)
Test D (control value class) [1]: H (H shows more than 50% of control values)
Test G (control value class) (Plasmopara viticola): L (L shows 50% or less of control values)
Test C (control value class) (Alternaia brassicicola): H (H shows more than 50% of control values)

CCn1c(-c2c(F)cccc2F)c(-c2cccc(F)c2F)cc(C)c1=O [Compound 534]
Test B (control value class) (Botrytis cinerea): H (H shows more than 50% of control values)
Test E (control value class) (Puccinia recondita): H (H shows more than 50% of control values)
Test D (control value class) [1]: H (H shows more than 50% of control values)
Test G (control value class) (Plasmopara viticola): L (L shows 50% or less of control values)
Test C (control value class) (Alternaia brassicicola): H (H shows more than 50% of control values)

Cn1c(-c2c(F)cccc2F)c(-c2cccc(F)c2F)ccc1=O [Compound 535]
Test B (control value class) (Botrytis cinerea): H (H shows more than 50% of control values)
Test E (control value class) (Puccinia recondita): H (H shows more than 50% of control values)
Test D (control value class) [1]: H (H shows more than 50% of control values)
Test G (control value class) (Plasmopara viticola): L (L shows 50% or less of control values)
Test C (control value class) (Alternaia brassicicola): H (H shows more than 50% of control values)

Cn1c(-c2c(F)cccc2F)c(-c2cccc(F)c2F)cc(Br)c1=O [Compound 536]
Test B (control value class) (Botrytis cinerea): H (H shows more than 50% of control values)
Test E (control value class) (Puccinia recondita): H (H shows more than 50% of control values)
Test D (control value class) [1]: H (H shows more than 50% of control values)
Test G (control value class) (Plasmopara viticola): L (L shows 50% or less of control values)
Test C (control value class) (Alternaia brassicicola): H (H shows more than 50% of control values)

Cn1c(-c2c(F)cccc2F)c(-c2cccc(F)c2F)cc(Cl)c1=O [Compound 537]
Test B (control value class) (Botrytis cinerea): H (H shows more than 50% of control values)
Test E (control value class) (Puccinia recondita): H (H shows more than 50% of control values)
Test D (control value class) [1]: H (H shows more than 50% of control values)
Test G (control value class) (Plasmopara viticola): L (L shows 50% or less of control values)
Test C (control value class) (Alternaia brassicicola): H (H shows more than 50% of control values)

Cc1cc(-c2cccc(F)c2F)c(-c2c(F)cccc2F)n(C)c1=O [Compound 538]
Test B (control value class) (Botrytis cinerea): H (H shows more than 50% of control values)
Test E (control value class) (Puccinia recondita): H (H shows more than 50% of control values)
Test D (control value class) [1]: H (H shows more than 50% of control values)
Test G (control value class) (Plasmopara viticola): H (H shows more than 50% of control values)
Test C (control value class) (Alternaia brassicicola): H (H shows more than 50% of control values)

O=c1ccc(-c2cc(Cl)ccc2F)c(-c2c(F)cccc2F)n1CC(F)F [Compound 539]
Test B (control value class) (Botrytis cinerea): H (H shows more than 50% of control values)
Test E (control value class) (Puccinia recondita): H (H shows more than 50% of control values)
Test D (control value class) [1]: H (H shows more than 50% of control values)
Test G (control value class) (Plasmopara viticola): H (H shows more than 50% of control values)
Test C (control value class) (Alternaia brassicicola): H (H shows more than 50% of control values)

O=c1c(Cl)cc(-c2cc(Cl)ccc2F)c(-c2c(F)cccc2F)n1CC(F)F [Compound 540]
Test B (control value class) (Botrytis cinerea): H (H shows more than 50% of control values)
Test E (control value class) (Puccinia recondita): H (H shows more than 50% of control values)
Test D (control value class) [1]: H (H shows more than 50% of control values)
Test G (control value class) (Plasmopara viticola): L (L shows 50% or less of control values)
Test C (control value class) (Alternaia brassicicola): H (H shows more than 50% of control values)

CCn1c(-c2c(F)cc(F)cc2F)c(-c2ccccc2F)cc(C)c1=O [Compound 542]
Test B (control value class) (Botrytis cinerea): H (H shows more than 50% of control values)
Test E (control value class) (Puccinia recondita): H (H shows more than 50% of control values)
Test D (control value class) [1]: H (H shows more than 50% of control values)
Test G (control value class) (Plasmopara viticola): H (H shows more than 50% of control values)
Test C (control value class) (Alternaia brassicicola): H (H shows more than 50% of control values)

COc1cc(F)c(-c2c(-c3ccccc3F)ccc(=O)n2C)c(F)c1 [Compound 544]
Test B (control value class) (Botrytis cinerea): H (H shows more than 50% of control values)
Test E (control value class) (Puccinia recondita): H (H shows more than 50% of control values)
Test D (control value class) [1]: H (H shows more than 50% of control values)
Test G (control value class) (Plasmopara viticola): L (L shows 50% or less of control values)
Test C (control value class) (Alternaia brassicicola): H (H shows more than 50% of control values)
